Data from patent US6383763B1, “Detection of mycobacteria” (priority 1996, dated 2002).
Ends that are not written are not given here.

Biological target: M. avium filtrate (Mycobacterium avium, UniProt Q06947)
Assay: Western blot of M. avium filtrate with murine antiserum against alpha antigen peptides
Format: binding
Conditions: serum of mice immunized with bead-bound peptide

“QRNDPSLHIPELVGH (also: on polystyrene microparticles) [229 peptide, synthetic peptide of M. avium alpha antigen beginning at residue 229, on polystyrene microparticles]” was tested, and the “antigens recognized by the antibody preparation raised against the peptide” value was “recognized the native 30 kD alpha antigen and no other proteins in M. avium filtrate”.
